Out of some 45,000 compounds screened, about 65 (0.1%) were called active. The call rests on the fitted dose curve; in most records, active means well fitted activation curve with a large enough effect; inconclusive means small, poorly fitted or top-dose-only effect; inactive means no such curve, though single readings can be large or run the other way. The list shows a part of the results.

The results in this text go back to PubChem BioAssay AID1159614 (National Center for Advancing Translational Sciences (NCATS), 2016).

Sequence of UniProt P54803 (P54803 whole entry, looked up): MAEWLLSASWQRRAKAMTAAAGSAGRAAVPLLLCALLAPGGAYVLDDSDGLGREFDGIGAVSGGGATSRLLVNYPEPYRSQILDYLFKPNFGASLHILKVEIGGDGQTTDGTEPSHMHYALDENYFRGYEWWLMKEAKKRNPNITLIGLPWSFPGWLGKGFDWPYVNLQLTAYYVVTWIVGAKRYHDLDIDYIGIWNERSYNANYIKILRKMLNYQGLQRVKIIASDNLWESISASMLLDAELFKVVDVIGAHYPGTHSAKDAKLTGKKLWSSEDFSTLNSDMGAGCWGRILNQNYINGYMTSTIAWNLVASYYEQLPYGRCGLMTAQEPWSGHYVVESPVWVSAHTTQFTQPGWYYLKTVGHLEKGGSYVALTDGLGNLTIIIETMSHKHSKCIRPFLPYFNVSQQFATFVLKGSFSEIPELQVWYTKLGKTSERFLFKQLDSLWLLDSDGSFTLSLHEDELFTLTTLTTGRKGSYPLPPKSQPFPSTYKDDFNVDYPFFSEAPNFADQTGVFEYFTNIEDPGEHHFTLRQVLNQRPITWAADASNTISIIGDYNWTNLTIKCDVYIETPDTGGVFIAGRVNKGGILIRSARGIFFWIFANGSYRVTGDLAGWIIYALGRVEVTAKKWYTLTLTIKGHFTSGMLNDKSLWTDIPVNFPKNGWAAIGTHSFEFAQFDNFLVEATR

In this experiment the target is Galactocerebrosidase (Homo sapiens) (UniProt P54803). In words: A Novel Cell-Based Assay to Identify Small Molecules for B -Galactocerebrosidase. Further: 0% is about no effect; nearly all actives have a fitted effect of over 65% in size. Particulars: 145M-Twi-hGALC-G270D cells (Twitcher mouse brain line with human GALC G270D), HMU-beta-Gal fluorescence, 48 h; series mostly up to 57.5 µM; activation: at the top concentration. In short, it runs like this:
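Fluorogenic HMU-b-Gal hydrolysis (0.1 mM final, pH 5.2 citrate-phosphate with 1 mg/mL sodium taurocholate; carbonate stop buffer) measures mutant GALC activity after compound treatment of live 145M-Twi Twitcher brain cells stably carrying human GALC-G270D, with wild-type GALC line alongside; activation sought.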
On to `CCOc1ccc(C(NC(=O)c2cc(OC)c(OC)c(OC)c2)c2cc(Cl)c3cccnc3c2O)cc1` (centres undefined), for which the “activation” value was inactive: -5.13%.

On to `Cc1ccc(NC(=O)COc2ccc(-c3nn(C)c(=O)c4ccccc34)cc2)c(C)c1`, for which the “activation” value was inactive: -19.2%.

Consider `Nc1c(-c2nc(-c3ccccc3Cl)no2)nnn1-c1ccccc1F`, for which the “activation” value was inactive: -4.71%. For the compound `Cc1ccc(O)c([C@H](CCN(C(C)C)C(C)C)c2ccccc2)c1`, the “activation” value was inactive: -1.04%. As for `CCC(=O)N1c2ccc(S(=O)(=O)N3CCCCCC3)cc2CC1C` (centres undefined), the figure is inactive: -10.3%. Next, `CCC(Sc1nc2cc3c(cc2c(=O)n1CCCC(=O)NCc1ccc2c(c1)OCO2)OCO3)C(=O)NCCCOC` (centres undefined): inactive: 9.82%; `CCCCSc1nnc2c(n1)OC(c1ccc(C)s1)Nc1ccccc1-2` (centres undefined): inactive: -23.9%. Next, `CCC(CC)c1nn2cc(-c3ccccc3)nc2s1`: inactive: 8.11%. Regarding `Cc1ccc(N2CCN(S(=O)(=O)c3cc(Br)cc4c3N(C(=O)C3CC3)CC4)CC2C)cc1` (centres undefined), the “activation” value is inactive: -8.96%. Next, `CCC(=O)Nc1nnc(S(=O)(=O)N2CCCCCC2)s1`: inactive: -7.74%; `Cn1cc(S(=O)(=O)N2CCCCC2)cc1C(=O)NCc1ccc(Cl)cc1`: inactive: -10.5%. As for `COc1ccc(NC(=O)C(NS(=O)(=O)c2cccc3nsnc23)c2ccccc2)cc1` (centres undefined), the figure is inactive: -6.13%; as for `CCOc1cc(-c2nnc(SCC(=O)NCCCOC)nc2-c2ccc(OC)c(OCC)c2)ccc1OC`, inactive: -11.3%; as for `Cc1cc(S(=O)(=O)Nc2ccc3[nH]c(=O)sc3c2)ccc1F`, inactive: -41.6%. On to `COc1ccc(N2CC(NC(=O)Cc3cccs3)CC2=O)cc1OC` (centres undefined), for which the “activation” value was inactive: -4.42%. As for `CCS(=O)(=O)N1CC(=O)N(c2ccc(C)c(C)c2)C(C)(C(=O)NC2CCCCCC2)C1` (centres undefined), the figure is inactive: -5.68%. Next, `COc1ccc(-c2cn3c(n2)sc2cc(C(=O)N4CCCCC4)ccc23)cc1`: inactive: -0.707%. As for `CCCN(C(=O)c1cn(CC(C)C)c(=O)c2cc(OC)c(OC)cc12)c1cccc(C)c1`, the figure is inactive: -0.0512%; as for `O=C(CN1CCN(Cc2ccc3c(c2)OCO3)CC1)N1c2ccccc2Sc2ccccc21`, inactive: -14.9%; as for `COc1ccc(CCNC(=O)c2ccc(Cn3c(=O)[nH]c4cc(OC)c(OC)cc4c3=O)cc2)cc1OC`, inactive: -13.5%. For the compound `O=C(/C=C/c1ccccc1)OCc1ccccc1`, the “activation” value was inactive: -16.9%.

`Cc1cc(C)c(NC(=O)CSc2nc3c([nH]c4ccccc43)c(=O)n2C)c(C)c1`: the “activation” value was inactive: -4.55%. As for `CCCOc1cccc(C2c3c(oc4ccc(F)cc4c3=O)C(=O)N2c2nc(C)c(C(C)=O)s2)c1` (centres undefined), the figure is inactive: -10.6%; as for `COc1cc(NC(=O)C2CCN(c3nc4ccccc4nc3C(F)(F)F)CC2)cc(OC)c1`, inactive: -9.53%; as for `CCCCNC(=O)CN1CCN(c2ncc(NC(=O)c3ccc(Cl)cc3)cc2C(=O)O)CC1`, inactive: -12%. Next, `CCOC(=O)C(=O)c1csc(NC=O)n1`: inactive: -12.7%; `CCc1ccccc1N(CC)C(=O)C1CCN(c2ncnc3c2nc2n3CCCCC2)CC1`: inactive: -7.36%. Next, `COc1cccc2c1cc1c(=O)n(CC(=O)N3CCC(C)CC3)nc(C)n12`: inactive: -26.7%.

As to `COCCCNc1nc(NCc2ccc(C)cc2)c2cnn(C)c2n1`, the “activation” value is inactive: -15.5%. As for `CCN(C(=O)Cn1ncc2c(=O)oc3ccccc3c21)c1ccccc1F`, the figure is inactive: -16.3%; as for `O=c1c2ccccc2n(Cc2cccc(Cl)c2)c(=O)n1Cc1ccccc1`, inactive: -5.2%. Regarding `Cc1cccc(N2CCN(C(=O)c3cc4ccc5cccnc5c4[nH]3)CC2C)c1` (centres undefined), the “activation” value was inactive: -11.7%.

Consider `CN1CCN(C(CNC(=O)c2c(F)cccc2F)c2ccc3c(c2)OCO3)CC1` (centres undefined), for which the “activation” value is inactive: -7.91%. Next, `CCC(C)NC(=O)c1sc2nc3n(c(=O)c2c1C)CCC3` (centres undefined): inactive: -13.2%; `COCCc1nn2c(=O)cc(COC(=O)c3ccc(Br)cc3)nc2s1`: inactive: -2.84%.

For `O=c1oc2ccccc2cc1-c1nc(-c2cccs2)no1`, the “activation” value was inactive: 17.2%. As for `CCC(=O)Nc1sc2c(c1C(=O)Nc1ccc(Br)cc1)CCCCC2`, the figure is inactive: 2.01%; as for `COc1ccccc1-c1nc(SCC(=O)c2ccc(Cl)cc2)n[nH]1`, inactive: -13.2%. As for `CCS(=O)(=O)N1CCc2cc(C(=O)NCc3ccccc3Cl)ccc21`, the figure is inactive: -12.1%; as for `COc1ccccc1NC(=O)c1sc2nc(C)c(C(=O)Nc3ccc(C)cc3C)c(-c3ccccc3Cl)c2c1N`, inactive: -18.9%; as for `Cc1ccc(NC(=O)CCN2C(=O)c3ccccc3Sc3ncccc32)c(Cl)c1`, inactive: -2.98%. For the compound `COc1cc(OC)cc(C(=O)NCCc2csc(-c3ccc(C(F)(F)F)cc3)n2)c1`, the “activation” value is inactive: -1.32%. As for `Cc1ccc2oc(=O)c3cc(C(=O)NCCc4ccc(Cl)cc4)sc3c2c1`, the figure is inactive: 9.02%. As for `CCc1ccccc1NC(=O)NC(CC)Cn1nnc2ccccc2c1=O` (centres undefined), the figure is inactive: -4.32%. Regarding `Cc1ccc(-n2nc3c(=O)n(C(C)C(=O)NCc4ccccc4C)nc(C)c3c2C)cc1` (centres undefined), the “activation” value was inactive: 12.1%. Turning to `CCOc1ccccc1NS(=O)(=O)c1cc(-c2cnc(C3CC3)o2)ccc1C`, the “activation” value was inactive: -2.91%. As for `O=C(c1cc2ccc3cccnc3c2[nH]1)N1CCN(c2cccc(Cl)c2)CC1`, the figure is inactive: -22%. For `CCCCc1nn2c(=O)cc(COC(=O)c3ccccc3C)nc2s1`, the “activation” value is inactive: -17.5%.

Regarding `COc1ccc(NC(=O)C(C(C)C)N2Cc3ccccc3C2=O)cc1` (centres undefined), the “activation” value was inactive: -19.3%. Next, `COc1ccc(-c2noc(CSc3nc4ccccc4[nH]3)n2)cc1`: inactive: -17.3%. As for `Cc1ccc(Nc2c(-c3ccc(C)cc3)nc3c(C)cccn23)cc1`, the figure is inactive: -10.4%; as for `CC(C)c1ccc(Nc2c(-c3ccc(N(C)C)cc3)nc3cnccn23)cc1`, inactive: 4.53%; as for `O=C(NCCc1ccc(Cl)cc1)C(=O)NCC(c1cccs1)S(=O)(=O)c1ccccc1` (centres undefined), inactive: -8.04%. As for `CC(=O)N1c2ccc(S(=O)(=O)NCCC(=O)N(C)Cc3ccccc3)cc2CC1C` (centres undefined), the figure is inactive: -15.8%; as for `COC(=O)c1cc2sc(C)cc2n1Cc1nc(-c2ccc(C)cc2)oc1C`, inactive: 1.93%.

For the compound `Cc1ccc(C)c(NC(=O)CSc2nc(=O)n(Cc3ccncc3)c3c2CCC3)c1`, the “activation” value is inactive: -15.2%. As for `Cc1cc2n(n1)CCC(=O)N2Cc1ccc(C(=O)Nc2cccc(C(F)(F)F)c2)cc1`, the figure is inactive: 1.86%; as for `CN(C)CCC(c1ccccc1)c1ccccn1` (centres undefined), inactive: -7.68%; as for `O=C(Cc1ccc(Cl)cc1)Nc1ccc2oc(-c3ccccc3F)nc2c1`, inactive: -19.4%. As for `CNC(=O)c1c(NC(=O)Cc2coc3ccc(OC)cc23)sc2c1CCCC2`, the figure is inactive: -12.2%. With `COc1cccc(CN(C(=O)c2oc3ccccc3c2C)C2CCS(=O)(=O)C2)c1` (centres undefined), the “activation” value was inactive: -13.9%.

Take `CCc1cccc(C)c1NC(=O)CCS(=O)(=O)c1ccc2c(c1)oc(=O)n2C`: the “activation” value was inactive: -20.1%. As for `CCN1C(=O)C(Cc2nc3ccccc3c(=O)n2C)c2cc(C)ccc21` (centres undefined), the figure is inactive: 19.2%. Next, `CCc1ccc(S(=O)(=O)c2nnn3c2nc(NCc2ccccc2)c2cc(Cl)ccc23)cc1`: inactive: -10.9%; `O=C(Nc1ccc(Cl)cc1)c1cc(S(=O)(=O)NC2CCCCCC2)ccc1F`: inactive: -8.22%. Next, `COc1cc(NS(=O)(=O)c2ccc(-c3cc(C)no3)cc2)cc(OC)c1`: inactive: -24.3%; `Cc1ccc(-c2csc3ncnc(Nc4ccc(C(=O)O)cc4)c23)cc1`: inactive: -19.5%. In the case of `O=C(CN1CCN(Cc2ccccc2Cl)C1=O)NCCc1ccc(Cl)cc1`, the “activation” value was inactive: -11.1%. Next, `COc1ccccc1-c1nc2cc(NC(=O)c3ccccc3Cl)ccc2o1`: inactive: 1.98%; `CCCNC(=O)C(Cc1ccccc1)NS(=O)(=O)c1ccc2c(c1)c(=O)n(C)c(=O)n2C` (centres undefined): inactive: 10.9%. As for `CCOc1ccc(C(=O)Nc2ccc3c(c2)OCCO3)cc1Br`, the figure is inactive: 7.05%; as for `COc1ccc(Cl)cc1NC(=O)CN1Cc2ccccc2C1=O`, inactive: -13.7%; as for `COc1ccc(Cn2c(C(=O)O)c(CNC3CCCCC3)c3ccc(C)cc32)cc1`, inactive: -3.53%. As for `COC(=O)c1ccc2c(c1)N(Cc1ccccc1)C(=O)c1ccccc1S2(=O)=O`, the figure is inactive: -11.7%. For `COc1ccc(OC)c(/C=C(\C#N)c2nc(-c3ccc(F)cc3)cs2)c1`, the “activation” value was inactive: -28.9%.

With `Cc1nc(S(=O)(=O)N2CCN(c3ccccc3F)CC2)cn1C`, the “activation” value was inactive: -2.77%. As for `COc1ccccc1NC(=O)c1sc2nc3n(c(=O)c2c1C)N=C(c1cccc(Br)c1)CS3`, the figure is inactive: -18%. As for `COc1ccc2c(c1)CCc1c(C(=O)Nc3ccc(OC)cc3OC)noc1-2`, the figure is inactive: -10.7%; as for `Cc1ccc(SCc2nc(-c3ccc(C(=O)NCC(C)c4ccccc4)cc3)oc2C)cc1` (centres undefined), inactive: -11%; as for `Cc1cccc(CNC(=O)CN2C(=O)CCn3nc(-c4cn(C)c5ccccc45)cc32)c1`, inactive: -21.9%.

As for `CCCC12CN3CC(C)(CN(C1)C3c1ccc(OCc3ccccc3)cc1)C2=O` (centres undefined), the “activation” value is inactive: -16.9%. With `Nc1c(-c2nc(-c3ccc4c(c3)OCO4)cs2)c2ccccn2c1C(=O)c1ccc(Cl)cc1`, the “activation” value was inactive: -12.2%.

Consider `CCOc1ccc(NC(=O)Cc2c[nH]c3ccccc23)cc1`, for which the “activation” value was inactive: -13.8%. In the case of `O=C(O)c1ccc(NC(=O)c2ccc(Br)c(S(=O)(=O)N3CCCC3)c2)cc1`, the “activation” value was inactive: -1.21%. For `COc1cc(C(CC(=O)Nc2ncccc2C)N2Cc3ccccc3C2=O)cc(OC)c1OC` (centres undefined), the “activation” value was inactive: -13.7%. Next, `CCOC(=O)c1cnc2ccc(OCC)cc2c1Nc1ccc(OCc2ccccc2Cl)cc1`: inactive: -0.698%; `Cc1cccc(CNC(=O)CN2C(=O)CSc3c2c(C)nn3-c2ccccc2)c1`: inactive: 2.68%. As to `CCN(c1ccccc1)S(=O)(=O)c1ccc(NC(=O)c2nc(SC(C)C)ncc2Cl)cc1`, the “activation” value was inactive: -14.6%. Next, `Cc1c(O)cccc1C(=O)N[C@@H](CSc1ccccc1)[C@H](O)CN1C[C@H]2CCCC[C@H]2C[C@H]1C(=O)NC(C)(C)C`: inactive: -14.2%; `CCOc1ccc(Br)cc1C1NC(=O)c2c(sc3c2CCN(C)C3)N1` (centres undefined): inactive: -11.9%; `O=C(OCc1cc(=O)n2nc(C3CC3)sc2n1)c1ccc(NC(=O)c2ccccc2F)cc1`: inactive: 6.09%.

With `Cc1ccc(C(=O)N2CCC(C)CC2)cc1NC(=O)c1nsc2ccccc12`, the “activation” value was inactive: -15.2%. As for `CC(=O)c1cc(-c2ccc(F)cc2)n(CCC(=O)Nc2nc3ccc(C)cc3s2)c1C`, the figure is inactive: -15.2%. As for `Cc1ccc(S(=O)(=O)c2cc3cc(C(=O)Nc4ccc(C)cc4C)ccc3oc2=O)cc1`, the figure is inactive: -7.78%.

`CC1CCCCN1CCCNC(=O)Cn1ncc2c3ccccc3n(C)c2c1=O` (centres undefined): the “activation” value is inactive: -15.6%. As for `CCc1ccccc1NC(=O)c1ccc(F)c(S(=O)(=O)N2CCN(c3cccc(Cl)c3)CC2)c1`, the figure is inactive: -1.21%; as for `CC1CCN(S(=O)(=O)c2ccc3nc(N4CCN(c5ccc(F)cc5)CC4)ccc3c2)CC1`, inactive: -22.2%.

As for `COCCCn1c(=N)c(C(=O)NC2CCCCC2)cc2c(=O)n3cc(C)ccc3nc21`, the “activation” value is inactive: -18.5%.

Turning to `COc1ccc(CCNc2ncnc3onc(C)c23)c(OC)c1`, the “activation” value was inactive: -10.4%.
